Results: article PMC10293653 (International Journal of Biological Macromolecules, 2023)

Key:
[1] = Cells viability assay; format: cell-based; details: African green monkey, Vero E6 cells
[2] = biological target: ACE2-RBD interaction (Homo sapiens, UniProt Q9BYF1); assay: RBD-ACE2 binding assay, confocal co-localization in Calu-3 cells; format: cell-based
[3] = biological target: Mpro of SARS-CoV-2 (Severe acute respiratory syndrome coronavirus 2, UniProt P0DTD1); assay: Main protease; format: biochemical; details: read-out: inhibition of Mpro
[4] = tested on: cells infected with Wt-SARS-CoV-2
[5] = tested on: DPP4; details: virus infected cells

| SMILES | CC50 at 48 h [1] [µM] | interaction of ACE2 with RBD (confocal) [2] | inhibition at 100 µM [3] [%] | viable virus infected cells after treatment [4] | cellular DPP4 enzymatic activity in infected cells [5] |
| --- | --- | --- | --- | --- | --- |
| N#C[C@@H]1C[C@@H]2C[C@@H]2N1C(=O)[C@@H](N)C12CC3CC(CC(O)(C3)C1)C2 [Saxagliptin, saxagliptin] | 21.1 |  |  |  |  |
| N[C@@H](CC(=O)N1CCn2c(nnc2C(F)(F)F)C1)Cc1cc(F)c(F)cc1F [Sitagliptin, sitagliptin] | 67.4 | hampered the interaction of ACE2 with RBD | 21.45 ± 0.13 | Around 90% |  |
| N#C[C@@H]1CCCN1C(=O)CNC12CC3CC(CC(O)(C3)C1)C2 [Vildagliptin, vildagliptin] | 131 |  |  |  |  |
| CCC(CC)COC(=O)[C@H](C)N[P@](=O)(OC[C@H]1O[C@@](C#N)(c2ccc3c(N)ncnn23)[C@H](O)[C@@H]1O)Oc1ccccc1 [Remdesivir, remdesivir] |  |  |  |  | did not affect the DPP4 activity |
| CN(C)C(=N)N=C(N)N [Metformin, metformin] | 46.3 |  |  |  |  |
| CC#CCn1c(N2CCC[C@@H](N)C2)nc2c1c(=O)n(Cc1nc(C)c3ccccc3n1)c(=O)n2C [Linagliptin, linagliptin] | 21.3 | hampered the interaction of ACE2 with RBD | 31.5 ± 9.97 | Around 90% |  |
